In patent US20130344098A1 one finds Percentage of degranulation (CD63 on basophils), No IgG and EC50 data, which are given here for 2 molecules.

The target of test [1] is Fel d1 specific IgE on basophils of cat allergic donors. In words: cell-based or functional assay.
Another test concerns the target anti-Fel d1 mAB 6F9. The experiment in a line: sandwich ELISA: mAB 6F9 coated, Fel d1 protein in doubling dilutions 80-0.16 ng/ml, detected with biotinylated mAB 3E4; Fel d1 (ng/ml) at OD50%. In general terms: ELISA stands for enzyme-linked immunosorbent assay.

B1: FELD1-15aa-HC (protein, Felis domesticus, not shown: small tags and cut ends)
chain (part 1 of 2): VKMAETCPIFYDVFFAVANGNELLLDLSLTKVNATEPERTAMKKIQDCYVENGLISRVLDGLVMTTISSSKDCMGEAVQNTVEDLKLNTLGRGGGGSGGGGSGGGGS[letters of about 80 residues omitted]
chain (part 2 of 2): GGC
B1 showed a Percentage of degranulation (CD63 on basophils), No IgG in test [1] of 33%. The molecule also gave an EC50 in the test with anti-Fel d1 mAB 6F9 of 7.9 ng/mL.

B2: FELD1-10aa-HC (protein, Felis domesticus, not shown: small tags and cut ends)
chain (part 1 of 2): VKMAETCPIFYDVFFAVANGNELLLDLSLTKVNATEPERTAMKKIQDCYVENGLISRVLDGLVMTTISSSKDCMGEAVQNTVEDLKLNTLGRGGGGSGGGGS[letters of about 80 residues omitted]
chain (part 2 of 2): GGC
On to B2, for which the EC50 with anti-Fel d1 mAB 6F9 stood at 6.7 ng/mL.

Broadly, the EC50 is the concentration at which the effect is half-maximal. A low value points to higher potency in that assay.
